PMC4336329 (PLoS ONE, 2015)
Out of some 310,000 compounds screened, about 2,200 (0.71%) showed an effect of 50% or more. The effect is printed as a negative number. The list shows a part of the results.

Target: human ether-à-go-go-related gene (hERG) potassium channel (human, UniProt Q12809)
Experiment: primary screen, population patch clamp on CHO cells stably expressing hERG

Chain of human ether-à-go-go-related gene (hERG) potassium channel (Q12809 whole entry, looked up): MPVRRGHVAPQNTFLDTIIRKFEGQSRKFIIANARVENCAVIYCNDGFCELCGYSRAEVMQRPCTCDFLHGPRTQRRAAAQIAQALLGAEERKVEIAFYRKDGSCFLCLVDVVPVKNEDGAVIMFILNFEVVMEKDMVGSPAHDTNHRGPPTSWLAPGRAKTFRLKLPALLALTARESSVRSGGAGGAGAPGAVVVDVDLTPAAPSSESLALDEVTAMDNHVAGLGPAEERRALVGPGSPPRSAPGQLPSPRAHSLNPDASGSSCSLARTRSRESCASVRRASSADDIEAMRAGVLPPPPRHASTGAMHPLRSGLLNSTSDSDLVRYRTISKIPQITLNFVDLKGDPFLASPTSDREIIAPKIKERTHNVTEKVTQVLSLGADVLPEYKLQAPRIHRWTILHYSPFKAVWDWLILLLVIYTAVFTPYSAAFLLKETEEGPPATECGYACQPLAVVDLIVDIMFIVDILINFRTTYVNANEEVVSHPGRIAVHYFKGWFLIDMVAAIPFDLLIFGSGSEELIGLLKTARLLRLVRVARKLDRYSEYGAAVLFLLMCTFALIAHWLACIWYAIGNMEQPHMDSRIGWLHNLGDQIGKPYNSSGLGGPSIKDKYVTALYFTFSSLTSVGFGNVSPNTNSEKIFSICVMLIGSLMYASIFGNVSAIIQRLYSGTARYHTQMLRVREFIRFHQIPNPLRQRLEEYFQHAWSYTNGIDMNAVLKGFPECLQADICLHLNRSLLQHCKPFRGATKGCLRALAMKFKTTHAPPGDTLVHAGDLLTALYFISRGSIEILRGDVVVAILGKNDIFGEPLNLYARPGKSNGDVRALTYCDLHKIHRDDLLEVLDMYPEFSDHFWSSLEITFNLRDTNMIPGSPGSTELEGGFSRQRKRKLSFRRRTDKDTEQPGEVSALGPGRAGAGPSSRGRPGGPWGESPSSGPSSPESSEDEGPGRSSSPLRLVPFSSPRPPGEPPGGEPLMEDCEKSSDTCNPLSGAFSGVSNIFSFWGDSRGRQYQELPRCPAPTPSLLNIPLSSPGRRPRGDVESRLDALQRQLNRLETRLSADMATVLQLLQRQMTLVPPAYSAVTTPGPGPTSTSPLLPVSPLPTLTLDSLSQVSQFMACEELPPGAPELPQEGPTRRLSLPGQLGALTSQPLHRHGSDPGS

Q: Which “hERG current change (%, negative = inhibition) at 1uM” value does the source give for O=C(Cn1ccc([N+](=O)[O-])n1)NCC1CCCO1 (stereo not shown) here?
A: 20.9%

Q: CCCc1cc(Nc2ccccc2OCC)n2ncnc2n1 was tested. Which “hERG current change (%, negative = inhibition) at 1uM” value did it give?
A: -11.1%

Q: O=C(CN(c1ccccn1)S(=O)(=O)c1ccccc1)Nc1ccccc1 was tested. Which “hERG current change (%, negative = inhibition) at 1uM” value did it give?
A: 8.64%

Q: With CN(CC1CCCN(CCc2ccc(Cl)cc2)C1)C(=O)c1ccc2nc[nH]c2c1 (stereo not shown) as the compound, how does the “hERG current change (%, negative = inhibition) at 1uM” value read?
A: -6.07%

Q: Which “hERG current change (%, negative = inhibition) at 1uM” value does the source give for COc1ccc(Cl)cc1NC(=O)c1cnccn1 here?
A: 13.7%

Q: With OCCN1CNC(=S)NC1 as the compound, how does the “hERG current change (%, negative = inhibition) at 1uM” value read?
A: 11%

Q: For Cn1cc(CC(=O)NC2CCCCC2)c2ccccc21, which “hERG current change (%, negative = inhibition) at 1uM” value is on record?
A: 21.5%

Q: Which “hERG current change (%, negative = inhibition) at 1uM” value does the source give for Cn1c(=O)[nH]c(=O)c2c1nc(N/N=C/c1ccncc1)n2Cc1ccc(F)cc1 here?
A: 12.1%

Q: Which “hERG current change (%, negative = inhibition) at 1uM” value does the source give for Cc1ccc(-n2nc(C(=O)O)c3ccccc3c2=O)cc1C here?
A: -2.75%

Q: Nc1cccc2c1C(=O)N(CC(=O)NC13CC4CC(CC(C4)C1)C3)C2=O was tested. Which “hERG current change (%, negative = inhibition) at 1uM” value did it give?
A: 10.6%

Q: With CCN(c1cccc(C)c1)S(=O)(=O)c1ccc2c(c1)NC(=O)CCS2 as the compound, how does the “hERG current change (%, negative = inhibition) at 1uM” value read?
A: 10.1%

Q: Which “hERG current change (%, negative = inhibition) at 1uM” value does the source give for Cc1ccc(Nc2ncccc2C(=O)NCc2cccs2)c(C)c1 here?
A: 12.2%

Q: Which “hERG current change (%, negative = inhibition) at 1uM” value does the source give for COc1ccc2c(c1)[nH]c1c(=O)n(CCc3cnc[nH]3)cnc12 here?
A: 0.251%

Q: For Cc1cc2c(SCC(=O)NC3CCCCC3)ncnc2s1, which “hERG current change (%, negative = inhibition) at 1uM” value is on record?
A: 12.9%

Q: Which “hERG current change (%, negative = inhibition) at 1uM” value does the source give for COc1ccccc1N(C(=O)c1snc(C(N)=O)c1N)C(C(=O)NC1CCCC1)c1ccc2ncccc2c1 (stereo not shown) here?
A: 11.6%

Q: How did the “hERG current change (%, negative = inhibition) at 1uM” value turn out when CC(=O)N1CCc2c(sc(NC(=O)CCS(=O)(=O)c3ccc(C)cc3)c2C#N)C1 was run?
A: 3.7%

Q: How did the “hERG current change (%, negative = inhibition) at 1uM” value turn out when O=C(Cn1ncc2c1-c1ccccc1OC2)N(Cc1ccco1)C1CCCCC1 was run?
A: 11.8%

Q: Cc1ccc(OCC(=O)Nc2oc(-c3ccccc3)c(-c3ccccc3)c2C#N)cc1 was tested. Which “hERG current change (%, negative = inhibition) at 1uM” value did it give?
A: 20.1%

Q: Which “hERG current change (%, negative = inhibition) at 1uM” value does the source give for CC1CN=C(Nc2cccc(S(=O)(=O)N(C)C)c2)S1 (stereo not shown) here?
A: 6.85%

Q: For CCCCOC(=O)Oc1ccc2c(=O)c(Oc3cccc(C)c3)coc2c1, which “hERG current change (%, negative = inhibition) at 1uM” value is on record?
A: 6.66%

Q: For COc1ccc(C(=O)NNC(=O)C(Cc2ccc(O)cc2)NC(=O)c2ccccc2NC(=O)c2ccc(OC)cc2)cc1 (stereo not shown), which “hERG current change (%, negative = inhibition) at 1uM” value is on record?
A: 4.83%

Q: For Fc1ccc(CSc2ccc3nnc(-c4cccs4)n3n2)cc1, which “hERG current change (%, negative = inhibition) at 1uM” value is on record?
A: 13.5%

Q: For CCOC(=O)c1cc(C(C)(C)C)n(CCCN2CCOCC2)c1C, which “hERG current change (%, negative = inhibition) at 1uM” value is on record?
A: 7.92%

Q: How did the “hERG current change (%, negative = inhibition) at 1uM” value turn out when CCC1(c2ccc(F)cc2)NC(=O)N(CC(=O)Nc2cccnc2Cl)C1=O (stereo not shown) was run?
A: 3.81%

Q: For CNC(=O)/C(C#N)=C/c1cn(CC(=O)OC)c2ccccc12, which “hERG current change (%, negative = inhibition) at 1uM” value is on record?
A: -0.362%

Q: Which “hERG current change (%, negative = inhibition) at 1uM” value does the source give for COCc1nnc(N)s1 here?
A: 6.55%

Q: Which “hERG current change (%, negative = inhibition) at 1uM” value does the source give for COCCNC(=O)CCCCCN1C(=O)CCC1=O here?
A: 10.8%

Q: How did the “hERG current change (%, negative = inhibition) at 1uM” value turn out when COc1cccc(-n2c(SCC(=O)NC(C)(C)C)nnc2-c2ccoc2C)c1 was run?
A: -3.46%

Q: For O=C1CC(N(CCc2ccccc2)C(=S)Nc2ccccc2)C(=O)N1c1ccc(F)cc1 (stereo not shown), which “hERG current change (%, negative = inhibition) at 1uM” value is on record?
A: 13.4%

Q: How did the “hERG current change (%, negative = inhibition) at 1uM” value turn out when CCCC(=O)N(c1ccc(OCC)cc1)S(=O)(=O)c1ccc2c3c(cccc13)C(=O)N2C was run?
A: 11.4%

Q: Which “hERG current change (%, negative = inhibition) at 1uM” value does the source give for CC(Oc1ccccc1)C(=O)N1CCC2(CC1)Oc1ccc(Cl)cc1C(=O)C21CC(c2ccccc2)=NO1 (stereo not shown) here?
A: 6.07%

Q: Which “hERG current change (%, negative = inhibition) at 1uM” value does the source give for CC1(C)CC(=O)N(c2ccc(Cl)cc2Cl)C(=O)C1 here?
A: 14.4%

Q: How did the “hERG current change (%, negative = inhibition) at 1uM” value turn out when O=[N+]([O-])c1cccc2c(Cl)ccnc12 was run?
A: 11.5%

Q: With CCN(CCO)c1ncnc2c1sc1nc(C(C)C)c3c(c12)CC(C)(C)OC3 as the compound, how does the “hERG current change (%, negative = inhibition) at 1uM” value read?
A: 7.65%

Q: COc1ccc(CNC(=O)c2nn(-c3ccccc3)cc2OC)cc1 was tested. Which “hERG current change (%, negative = inhibition) at 1uM” value did it give?
A: 7.62%

Q: Which “hERG current change (%, negative = inhibition) at 1uM” value does the source give for O=c1[nH]c2ccccc2nc1NCCN1CCOCC1 here?
A: -10.3%

Q: How did the “hERG current change (%, negative = inhibition) at 1uM” value turn out when CC1CC1C(=O)OCC(=O)NCc1ccccc1Cl (stereo not shown) was run?
A: 4.39%

Q: With C(=N/N1CCN(c2ccccc2)CC1)/c1cccs1 as the compound, how does the “hERG current change (%, negative = inhibition) at 1uM” value read?
A: 5.65%

Q: For Cc1ccc(NC(=O)CCSCCc2ccccn2)cc1, which “hERG current change (%, negative = inhibition) at 1uM” value is on record?
A: 3.54%

Q: How did the “hERG current change (%, negative = inhibition) at 1uM” value turn out when Clc1ccc(Sc2ccc(/C=N/n3cnnc3)o2)cc1 was run?
A: -10.7%

Q: How did the “hERG current change (%, negative = inhibition) at 1uM” value turn out when COc1cccc(NC(=O)C2CCCN(S(C)(=O)=O)C2)c1 (stereo not shown) was run?
A: 22.7%

Q: How did the “hERG current change (%, negative = inhibition) at 1uM” value turn out when COc1ccc(S(=O)(=O)NNC(=O)Nc2ccc(F)cc2F)c(OC)c1 was run?
A: 3.13%

Q: How did the “hERG current change (%, negative = inhibition) at 1uM” value turn out when CCN(CC)S(=O)(=O)c1cccc(C(=O)N/N=C/c2ccc(O)c(O)c2O)c1 was run?
A: 8.82%

Q: How did the “hERG current change (%, negative = inhibition) at 1uM” value turn out when O=C(NC1=NCCS1)C1CC(=O)N(c2ccc(Cl)cc2)C1 (stereo not shown) was run?
A: 7.68%

Q: COc1ccc2c(c1)CC1(CN2C)C(=O)NC(=O)N(c2ccc(F)cc2)C1=O (stereo not shown) was tested. Which “hERG current change (%, negative = inhibition) at 1uM” value did it give?
A: 4.41%

Q: Which “hERG current change (%, negative = inhibition) at 1uM” value does the source give for CC[N+](CC)(CC=C(C)C)CC(=O)OC.[Cl-] here?
A: 19.5%

Q: For O=C(Cn1nnc(-c2ccccc2)n1)NCc1ccco1, which “hERG current change (%, negative = inhibition) at 1uM” value is on record?
A: 7.3%

Q: Which “hERG current change (%, negative = inhibition) at 1uM” value does the source give for O=C(CSc1nc2ccccc2[nH]1)c1ccco1 here?
A: -3.42%

Q: Which “hERG current change (%, negative = inhibition) at 1uM” value does the source give for CCOC(=O)c1c(S(=O)(=O)NCC(=O)NCc2ccccc2)c(C)n(C)c1C here?
A: 13.1%

Q: COc1ccc(/C=C2\SC(=S)N(CCCC(=O)N3CCN(C)CC3)C2=O)cc1 was tested. Which “hERG current change (%, negative = inhibition) at 1uM” value did it give?
A: 1.76%

Q: For COc1cccc(/C=C2/Oc3ccccc3N(CC(=O)NCC3CCCO3)C2=O)c1 (stereo not shown), which “hERG current change (%, negative = inhibition) at 1uM” value is on record?
A: 19.6%

Q: With Cn1nccc1C(=O)Nc1ccc2c(c1)OCCO2 as the compound, how does the “hERG current change (%, negative = inhibition) at 1uM” value read?
A: -0.951%

Q: Cc1cc(/C=N\NC(=O)c2cccs2)c(C)n1-c1ccc2ncccc2c1 was tested. Which “hERG current change (%, negative = inhibition) at 1uM” value did it give?
A: 10.6%

Q: For Cc1sc(NC(=O)CSc2ncn(-c3ccccc3)n2)nc1-c1ccccc1, which “hERG current change (%, negative = inhibition) at 1uM” value is on record?
A: -0.472%

Q: How did the “hERG current change (%, negative = inhibition) at 1uM” value turn out when COc1ccc(C2Sc3nncn3N2Cc2ccc(C#N)cc2)cc1 (stereo not shown) was run?
A: 9.19%

Q: How did the “hERG current change (%, negative = inhibition) at 1uM” value turn out when COc1ccc(COc2ncnc3ccc(Br)cc23)cc1F was run?
A: 11.7%

Q: How did the “hERG current change (%, negative = inhibition) at 1uM” value turn out when O=C(CN1CCN(C(=O)C2CCCO2)CC1)Nc1ccc(F)cc1 (stereo not shown) was run?
A: -4.59%

Q: Which “hERG current change (%, negative = inhibition) at 1uM” value does the source give for CCC(C)NC(=O)c1ccc(NS(=O)(=O)c2ccc3[nH]c(=O)[nH]c3c2)cc1 (stereo not shown) here?
A: 14.6%
